The source of these data is patent US20230416313A1 (NAVIGO PROTEINS, published 2023).

Changes are numbered by the printed parent chain.

The chains are these.
B1: SEQ ID NO 18 (designed binder)
chain: IAAKFDEAQWAAFYEIVHLPNLTEEQREAFIQSLWDDPSVSLEVLGEAQKLNDSQAPKIAAKFDEAQQAAFYEILHLPNLTERQRNWFIQQLRDDPSVSLTVLGRAQRLNDSQAPK
B2: SEQ ID NO 7 (designed binder)
chain: B1 chain with S39G, R83A, W87H, Q91R, T101V, R105Q, R108K
B3: CFH binding protein of SEQ ID NO: 19 (CID 209860) (designed binder)
chain: B1 chain with Y14E, V17A, Q91R, T101W
B4: fusion protein of SEQ ID NO: 25 (CID213110) (designed binder)
chain: AKFDEAQTAAFWEIEHLPNLTEEQRWAFIWSLADDPSVSLEVLGEAQKLNDSQAPKIAAKFDEAQQAAFYEILHLPNLTEWQRNYFIQKLRDDPSVSLWVLGQAQILNDSQAPKIAAQHDKIQQAADKEILHLPNLTEEQRNKFRQSLRDDPSVSAEILAEAKKLNDAQAPKIAAQHDKIQQAADKEILHLPNLTEEQRNKFRQSLRDDPSVSAEILAEAKKLNDAQAPKIAAQHDKIQQAADKEILHLPNLTEEQRNKFRQSLRDDPSVSAEILAEAKKLNDAQAPK
B5: CFH binding protein of SEQ ID NO: 10 (CID 209372) (designed binder)
chain: B1 chain with R83Q, W87Y, Q91R, T101A, R105H, R108K
notes: Coupled to Praesto Epoxy 85 resin
B6: affinity ligand 209621 (SEQ ID NO: 13) (designed binder)
chain: IAAKFDEAQTAAFWEIEHLPNLTEEQRWAFIWSLADDPSVSLEVLGEAQKLNDSQAPKIAAKFDEAQQAAFYEILHLPNLTEWQRNYFIQKLRDDPSVSLWVLGQAQILNDSQAPK
notes: coupled to Praesto Epoxy 85 resin in chromatography; also called Praesto_209621 (when immobilized)
B7: CFH binding protein of SEQ ID NO: 22 (CID 209921) (designed binder)
chain: IAAKFDEAQQEWAFYHILHLYNLTEEQRNAFIQSLRDDPSVSQEVLGEAWKLNQSQAPKIAAKFDEAQYAAFWEIWHLPNLTEEQRWAFILSLHDDPSVSLEVLGEAQKLNDSQAPK
notes: as for B5
B8: CFH binding protein of SEQ ID NO: 11 (CID 209429) (designed binder)
chain: IAAKFDEAQQRAFYWILHLRNLTEEQRNAFIQSLRDDPSVSKEVLGEAYKLNKSQAPKIAAKFDEAQTAAFWEIWHLPNLTEEQRVAFIHSLQDDPSVSLEVLGEAQKLNDSQAPK
notes: as for B5
B9: CFH binding protein of SEQ ID NO: 12 (CID 209434) (designed binder)
chain: B8 chain with K53V, T68V, P96Q
notes: as for B5
B10: CFH binding protein of SEQ ID NO: 21 (CID 209920) (designed binder)
chain: B8 chain with R11E, R20E, K42E, Y49L, K53V, T68Y, W75Q, V86H, H90W, Q93L
notes: as for B5

One assay has as its target T1, recombinant human complement factor H (CFH), isolated from moss (human, UniProt P08603 19-1231).
T1 construct: also called moss-FH; recombinant CFH
T1 sequence (P08603 19-1231 limits assumed): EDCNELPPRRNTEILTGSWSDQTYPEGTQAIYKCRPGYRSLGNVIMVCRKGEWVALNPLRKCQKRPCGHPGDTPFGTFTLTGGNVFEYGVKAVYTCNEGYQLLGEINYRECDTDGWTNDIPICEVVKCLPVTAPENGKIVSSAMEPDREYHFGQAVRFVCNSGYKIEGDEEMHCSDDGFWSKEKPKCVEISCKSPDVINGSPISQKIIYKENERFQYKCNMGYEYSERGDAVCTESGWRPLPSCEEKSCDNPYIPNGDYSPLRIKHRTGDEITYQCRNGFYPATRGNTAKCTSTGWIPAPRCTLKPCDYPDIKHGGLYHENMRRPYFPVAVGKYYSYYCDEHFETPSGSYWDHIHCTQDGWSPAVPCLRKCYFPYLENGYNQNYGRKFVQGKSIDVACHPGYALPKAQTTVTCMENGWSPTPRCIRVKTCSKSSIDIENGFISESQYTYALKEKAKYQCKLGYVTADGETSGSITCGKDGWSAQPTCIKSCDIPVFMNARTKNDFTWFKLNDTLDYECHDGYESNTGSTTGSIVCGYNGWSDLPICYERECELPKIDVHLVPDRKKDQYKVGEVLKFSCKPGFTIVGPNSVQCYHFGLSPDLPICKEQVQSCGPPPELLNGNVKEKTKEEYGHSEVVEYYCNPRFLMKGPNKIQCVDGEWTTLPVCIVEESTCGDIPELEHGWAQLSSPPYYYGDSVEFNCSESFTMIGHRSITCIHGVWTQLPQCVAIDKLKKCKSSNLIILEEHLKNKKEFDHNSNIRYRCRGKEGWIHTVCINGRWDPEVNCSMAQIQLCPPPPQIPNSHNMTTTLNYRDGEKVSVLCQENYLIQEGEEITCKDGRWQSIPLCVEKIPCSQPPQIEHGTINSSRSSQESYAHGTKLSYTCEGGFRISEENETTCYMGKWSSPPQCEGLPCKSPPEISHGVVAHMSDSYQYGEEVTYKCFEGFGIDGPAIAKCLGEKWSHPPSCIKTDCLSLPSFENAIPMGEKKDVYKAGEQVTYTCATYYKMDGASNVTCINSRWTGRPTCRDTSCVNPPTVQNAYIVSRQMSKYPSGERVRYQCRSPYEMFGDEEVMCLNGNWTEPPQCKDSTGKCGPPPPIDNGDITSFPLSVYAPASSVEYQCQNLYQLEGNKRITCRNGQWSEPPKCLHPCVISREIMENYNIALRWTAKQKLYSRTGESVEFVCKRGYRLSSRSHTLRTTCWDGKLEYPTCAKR
Briefly: SPR (Example 3), ligand immobilized, soluble CFH injected. From the text: Purified proteins were immobilized via C-terminal Cysteine on a CM-5 sensor chip (GE Healthcare) using NHS/EDC after PDEA activation resulting in 110-140 RU with a Biacore 3000 system (GE Healthcare). The chip was equilibrated with SPR running buffer (PBS 0.05% Tween pH 7.3). Otherwise variants were immobilized via Streptag using rProtein A surface and an anti strep-tag antibody (Anti-[…], GenScript) for variant capturing.
Soluble recombinant CFH applied to the chip in serial dilutions (different concentrations) with a flow rate of 30 μl/min. The association was performed for 120 seconds and the dissociation for 120 seconds. After each run, the chip surface was regenerated with 30 μl regeneration buffer (10 mM glycine pH 2.0) and equilibrated with running buffer.
As for B1, the Kd (usually the constant that tells how readily two partners part at equilibrium) is < 500 nM. Turning to B2, the Kd is < 500 nM. The same measure, in the same setting: the same measure for B3: < 500 nM.

For a further assay, the target named is T1, recombinant human complement factor H …. Briefly: affinity chromatography, ligand on Praesto Epoxy 85, CFH supernatant. How it is done:
(§1) Coupling parameter. Proteins were purified to homogeneity and coupled to resin for AIC experiments. […] Variants were successfully coupled to epoxy-activated Praesto 85 resin.
(§2) AIC experiments. Capturing and Elution. For initial column performance tests, resins were packed into superformance 50-5 column housing. Phosphate buffered saline pH 7.3 (PBS) was used to equilibrate the column, followed by applying of 10 mL of recombinant CFH expression supernatant (titer: 0.47 mg/mL) at 6 min residence time. Resin was then washed with PBS for 15 column volumes. Elution was performed at pH 3.5 using 100 mM Citric acid buffer followed by stripping of residual bound CFH at pH 2.0. Elution at pH 3.5 and pH 2.0 was calculated by UV 280 nm absorption.
SBC Determination. For SBC determination increased volumes (50 ml, titer: 0.75 mg/mL) of recombinant CFH expression supernatant were applied.
In the case of B4, the binding result was “binds”.

The next assay has the same target. Briefly: affinity chromatography, ligand on Praesto Epoxy 85, CFH supernatant bound in PBS pH 7.3, eluted at pH 3.5. As to the method: as §1, §2
Consider B5, for which the “Step Yield of CFH at pH 3.5 (percentage elution)” value (shortened to “Step Yield … (percentage elution)”) is 58%.

As to B6, the “Step Yield … (percentage elution)” value amounted to 54%. As to B3, the “Step Yield … (percentage elution)” value was 77%.

For B7, the “Step Yield … (percentage elution)” value worked out at 91%.

B8: the “Step Yield … (percentage elution)” value is 96%.

With B9, the “Step Yield … (percentage elution)” value is 95%.

With B10, the “Step Yield … (percentage elution)” value was determined as 89%.
